Consider three molecules from US20160089393A1, “COMPOSITION AND METHODS FOR COMBATING ANTIBACTERIAL RESISTANT BACTERIA” (BLUEBERRY THERAPEUTICS LIMITED, priority 2013, published 2016).

Experiment [1] relates to EMRSA-15. Description: MIC by broth microdilution (antibacterial susceptibility test of EMRSA-15). The format is cell-based, methicillin-resistant Staphylococcus aureus (MRSA).
Experiment [2] deals with EMRSA-15. Description: Oxacillin sensitization: growth of EMRSA-15 with peptide, oxacillin and fixed PHMB. Format: cell-based, methicillin-resistant Staphylococcus aureus (MRSA).
In experiment [3] the target is T1, MecA (Penicillin binding protein 2A, PBP2A) (Staphylococcus aureus).
T1 construct: The primers were designed so that the first 23 amino acids at the N terminus were deleted; GST (N, cleaved yes); primer-encoded linker LEVLFQGP-M (my own translation of the forward primer); made in house; host or cells: Escherichia coli BL21(DE3)
Description: In vitro binding to MecA and block of oxacillin binding. Also on record: species or system methicillin-resistant Staphylococcus aureus (MRSA).

Experiment [4] concerns EMRSA-15. The experiment can be described thus: Oxacillin sensitization: growth of EMRSA-15 with peptide, oxacillin and fixed PHMB. Details: key: 1 is growth; 0 is no growth. The settings on record: PHMB 0.25 μg/ml. The format is cell-based, methicillin-resistant Staphylococcus aureus (MRSA).
Experiment [5] deals with EMRSA-15. The description is as above. Details: key: 1 indicates growth; 0 indicates no growth. The format is cell-based, methicillin-resistant Staphylococcus aureus (MRSA). The settings on record: PHMB 1 ug/ml.
The mark [6] stands for this setting: growth media with oxacillin 64 μg/ml.

B1: MecA3136: MecA (PBP2A) binding peptide aptamer, Affimer on Stefin A scaffold, Sequence ID No. 1 (protein)
chain: MHHHHHHSSGLVPCGWLKETAAAKFERQHMDSPDLSTWSHPQFEKGGGSGGGSGGGSWSHPQFEKGTGSGGGSGGGSWSHPQFEKGTGSGGGSGGGSWSHPQFEKGTGSGGGSGGGSWSHPQFEKGTDDDDKAMADIGSEMIPRGLSEAKPATPEIQEIVDKVKPQLEEKTNETYGKLEAVQYKTQVLAKILTLGSTNYYIKVRAGDNKYMHLKVFKSLALELSETPTPKAADRVLTGYQVDKNKDDELTGF
modifications: Peptide sequence MecA3136
Consider B1, for which the “MIC of EMRSA-15” value is above 176 µg/mL in the experiment on EMRSA-15 [1] (setting [6]) and above 512 µg/mL in the experiment on EMRSA-15 [1] (growth media: no oxacillin). The “enhancement of oxacillin activity” value in the experiment on EMRSA-15 [2] is “clear enhancement of oxacillin activity”. Besides, in experiment [3], the “binding to MecA and block of oxacillin binding” value (“binding to MecA and block” for short) was “bind to MecA and block oxycillin binding to MecA”. The “Growth of EMRSA-15” value is 1 with EMRSA-15 [4] (MecA3136 0.25 uM, oxacillin 0 ug/ml); 1 in the experiment on EMRSA-15 [4] (MecA3136 0.25 uM, oxacillin 16 ug/ml); 1 in the experiment on EMRSA-15 [4] (MecA3136 0.25 uM, oxacillin 32 ug/ml); 1 in the experiment with EMRSA-15 [4] (MecA3136 0.25 uM, oxacillin 64 ug/ml); 1 in the experiment on EMRSA-15 [4] (MecA3136 0.5 uM, oxacillin 0 ug/ml); 1 in the experiment on EMRSA-15 [4] (MecA3136 0.5 uM, oxacillin 16 ug/ml). Moreover, the “Growth of EMRSA-15” value in the experiment with EMRSA-15 [4] (MecA3136 0.5 uM, oxacillin 32 ug/ml) is recorded as 1; in the experiment on EMRSA-15 [4] (MecA3136 0.5 uM, oxacillin 64 ug/ml) it was 0; in the experiment with EMRSA-15 [4] (MecA3136 1 uM, oxacillin 0 ug/ml), 1; in the experiment with EMRSA-15 [4] (MecA3136 1 uM, oxacillin 16 ug/ml), 1; in the experiment on EMRSA-15 [4] (MecA3136 1 uM, oxacillin 32 ug/ml), 1; with EMRSA-15 [4] (MecA3136 1 uM, oxacillin 64 ug/ml), 0. The “Growth of EMRSA-15” value with EMRSA-15 [4] (MecA3136 2 uM, oxacillin 0 ug/ml) is 1; in the experiment with EMRSA-15 [4] (MecA3136 2 uM, oxacillin 16 ug/ml), 1; in the experiment with EMRSA-15 [4] (MecA3136 2 uM, oxacillin 32 ug/ml), 0; with EMRSA-15 [4] (MecA3136 2 uM, oxacillin 64 ug/ml), 0; in the experiment with EMRSA-15 [4] (MecA3136 4 uM, oxacillin 0 ug/ml), 1; in the experiment with EMRSA-15 [4] (MecA3136 4 uM, oxacillin 16 ug/ml), 0. Also, the “Growth of EMRSA-15” value in the experiment with EMRSA-15 [4] (MecA3136 4 uM, oxacillin 32 ug/ml) stood at 0; with EMRSA-15 [4] (MecA3136 4 uM, oxacillin 64 ug/ml), 0; with EMRSA-15 [4] (MecA3136 8 uM, oxacillin 0 ug/ml), 1; with EMRSA-15 [4] (MecA3136 8 uM, oxacillin 16 ug/ml), 0; with EMRSA-15 [4] (MecA3136 8 uM, oxacillin 64 ug/ml), 0.

B2: HIW: MecA (PBP2A) binding peptide aptamer, Sequence ID No. 3 (protein)
chain: MHHHHHHSSGLVPCGWLKETAAAKFERQHMDSPDLSTWSHPQFEKGGGSGGGSGGGSWSHPQFEKGTGSGGGSGGGSWSHPQFEKGTGSGGGSGGGSWSHPQFEKGTGSGGGSGGGSWSHPQFEKGTDDDDKAMADIGSEMIPRGLSEAKPATPEIQEIVDKVKPQLEEKTNETYGKLEAVQYKTQVLASTNYYIKVRAGDNKYMHLKVFKSLHIWPITEIRRLVADRVLTGYQVDKNKDDELTGF
modifications: Peptide sequence HIW
In the case of B2, the “enhancement of oxacillin activity” value in the experiment with EMRSA-15 [2] is recorded as “Clear enhancement of oxacillin activity”. In addition, the “Growth of EMRSA-15” value in the experiment with EMRSA-15 [5] (HIW 5 ug/ml, oxacillin 0 ug/ml) was found to be 1; with EMRSA-15 [5] (HIW 5 ug/ml, oxacillin 16 ug/ml), 1; in the experiment with EMRSA-15 [5] (HIW 5 ug/ml, oxacillin 32 ug/ml), 1; in the experiment with EMRSA-15 [5] (HIW 5 ug/ml, oxacillin 64 ug/ml), 0; with EMRSA-15 [5] (HIW 10 ug/ml, oxacillin 0 ug/ml), 1; in the experiment with EMRSA-15 [5] (HIW 10 ug/ml, oxacillin 16 ug/ml), 0. The “Growth of EMRSA-15” value with EMRSA-15 [5] (HIW 10 ug/ml, oxacillin 32 ug/ml) stood at 0; with EMRSA-15 [5] (HIW 10 ug/ml, oxacillin 64 ug/ml), 0. Further, the “binding to MecA and block” value in experiment [3] is “bind to MecA and block oxycillin binding to MecA”.

B3: MecA3140: MecA (PBP2A) binding peptide aptamer, Affimer on Stefin A scaffold, Sequence ID No. 2 (protein)
chain: MHHHHHHSSGLVPCGWLKETAAAKFERQHMDSPDLSTWSHPQFEKGGGSGGGSGGGSWSHPQFEKGTGSGGGSGGGSWSHPQFEKGTGSGGGSGGGSWSHPQFEKGTGSGGGSGGGSWSHPQFEKGTDDDDKAMADIGSEMIPRGLSEAKPATPEIQEIVDKVKPQLEEKTNETYGKLEAVQYKTQVLASTNYYIKVRAGDNKYMHLKVFKSLFVVIQPERSNTWADRVLTGYQVDKNKDDELTGF
modifications: Peptide sequence MecA3140
As for B3, the “MIC of EMRSA-15” value in the experiment with EMRSA-15 [1] (setting [6]) is above 176 µg/mL; with EMRSA-15 [1] (growth media: no oxacillin), above 512 µg/mL. Also, the “binding to MecA and block” value in experiment [3] was “bind to MecA and block oxycillin binding to MecA”.
